{"source": "ChEMBL document CHEMBL5308541", "about": "“MAIP: An Open-Source Tool to Enrich High-Throughput Screening Output and Identify Novel, Druglike Molecules with Antimalarial Activity” (ACS Med Chem Lett, 2023)", "note": "The campaign covered roughly 4,800 compounds. About 410 (8.5%) showed an effect of 50% or more. The list shows a part of the results.", "data": [{"tested_on": "Plasmodium falciparum", "assay": "Confirmatory screen in NF54 pLDH assay, in single point, at 2uM, 72h", "assay_type": "functional, Erythrocyte", "details": "timepoint 72 hour", "units": {"% Inhibition": "%"}, "values": [{"compound": "c1cc(CN2CCN(c3cc(N4CCN(Cc5ccncc5)CC4)ncn3)CC2)ccn1", "% Inhibition": 6}, {"compound": "Cc1sc2nc(-c3ccccn3)nc(NCCc3nccn3C)c2c1-c1ccccc1", "% Inhibition": 65}, {"compound": "Cc1nc(N2CCN(C)CC2)cc(N2CCN(S(=O)(=O)c3ccccc3C(F)(F)F)CC2)n1", "% Inhibition": 56}, {"compound": "Nc1ccnc2ccc(-c3ccc(C(=O)NCC4CCOCC4)cc3)cc12", "% Inhibition": 102}, {"compound": "CN1CCC(CNC2CC3CC(C2)N(C(=O)OC(C)(C)C)C3)CC1", "note": "(configuration not stated)", "% Inhibition": 2}, {"compound": "Cc1ccc2nc(NC[C@H]3CCN(C4CC4)C3)cc(C)c2c1", "% Inhibition": 100}, {"compound": "COc1ccc2c(O)c(Br)c(C)nc2c1", "% Inhibition": 72}, {"compound": "C[C@@H](c1cccc(-c2nc3cc(C#N)ccc3[nH]2)c1)N(C)C", "% Inhibition": 29}, {"compound": "N[C@H]1CC[C@@H](NC2CCN(c3ccc(F)c(F)c3)CC2)CC1", "% Inhibition": 35}, {"compound": "Cn1nnc(C(=O)N2CCCCC23CCCCCC3)n1", "% Inhibition": 59}, {"compound": "Cc1cc(O)c(Cl)cc1-c1cccc2c(N)ccnc12", "% Inhibition": 94}, {"compound": "CCCN(CCN1CCN(CC)CC1)c1nc(-c2ccccn2)nc2c1CCC2", "% Inhibition": 10}, {"compound": "Cc1cc(C)c(CN2CCN(C)CC2)cc1CNCCCn1ccnc1C", "% Inhibition": 44}, {"compound": "CCN1CCC(N2CCC(C(=O)NCCc3ccc(OC(F)(F)F)cc3)CC2)CC1", "% Inhibition": 53}, {"compound": "COc1ccc2c(C)cc(NCCCN3CCC[C@H](C(N)=O)C3)nc2c1", "% Inhibition": 100}, {"compound": "Cc1noc(-c2ccnc(NC[C@@H](c3ccccn3)N3CCOCC3)c2)n1", "% Inhibition": 100}, {"compound": "COc1ccc(-c2cc(-c3ccccc3O)n([C@@H]3C(=O)Nc4ccc(Br)cc43)n2)cc1", "% Inhibition": 46}, {"compound": "CCOc1cc2nccc(N3C[C@H]4CN(C)C[C@H]4C3)c2cc1OCC", "% Inhibition": 96}, {"compound": "O=C(NCc1cccc(-c2cccnc2)c1)N[C@H]1CCN(C2CCCCC2)C1", "% Inhibition": 45}, {"compound": "Cc1ccc(-c2cccc3c(C(=O)NCCCN4CCC(N5CCCCC5)CC4)cc(C)nc23)cc1", "% Inhibition": 103}, {"compound": "Cc1ccc2nc(-c3cccc(NC(=O)c4ccc(OC(F)(F)F)c(Cl)c4)c3)[nH]c2n1", "% Inhibition": 74}, {"compound": "Cc1cc(N2CCC(NC3CCCC3Cc3ccc(F)cc3)CC2)nc(N)n1", "note": "(configuration not stated)", "% Inhibition": 103}, {"compound": "O=C1CN(C(=O)c2ccnc3ccccc23)CCN1Cc1ccccc1F", "% Inhibition": 63}, {"compound": "NC(=O)[C@]1(O)CCN(c2ccnc3ccc(Oc4ccccc4)cc23)C1", "% Inhibition": 33}, {"compound": "FC(F)(F)c1ccc(N2CCC[C@H](NC3CCN(Cc4ccco4)CC3)C2)nc1", "% Inhibition": 38}, {"compound": "CC(NC(=O)OC(C)(C)C)C1CCN(C[C@@H]2CCCN2C(=O)OC(C)(C)C)CC1", "note": "(some centres not stated)", "% Inhibition": 20}, {"compound": "CNc1nc(C)c(-c2ccnc(Nc3cccc(S(C)(=O)=O)c3)n2)s1", "% Inhibition": 45}]}]}
